Assay results reported in PubChem BioAssay AID1794842 (National Center for Advancing Translational Sciences (NCATS), 2023).
Out of some 2,800 compounds screened, fewer than 10 were called active. Calls come from the whole dose curve; as a rule, active = well fitted curve in the direction sought with a large enough effect; inconclusive = small, poorly fitted or top-dose-only effect, or another doubt; inactive = no such curve, though single readings can be large or run the other way. The list shows a part of the results.

target: Metallo-beta-lactamase type 2 (Klebsiella pneumoniae) (UniProt C7C422); assay: qHTS to identify inhibitors of the New Delhi Metallo-beta-lactamase (NDM): Meropenem screen against the machine-based learning selections.; note: % of control where 0% means no effect; conditions: Purified NDM-1, meropenem hydrolysis, absorbance 300 nm; at 38.4 µM (top of the series) unless noted
Method in brief: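 Hydrolysis by 2 nM NDM-1 was followed by absorbance after >30 min compound preincubation in HEPES pH 7.0 buffer with 1 uM Zn2SO4. For nitrocefin (16.7 uM, 15 min, 485 nm) and meropenem (50 uM, 30 min, 300 nm), each substrate ran on separate plates.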

UniProt C7C422, sequence (C7C422 whole entry, looked up): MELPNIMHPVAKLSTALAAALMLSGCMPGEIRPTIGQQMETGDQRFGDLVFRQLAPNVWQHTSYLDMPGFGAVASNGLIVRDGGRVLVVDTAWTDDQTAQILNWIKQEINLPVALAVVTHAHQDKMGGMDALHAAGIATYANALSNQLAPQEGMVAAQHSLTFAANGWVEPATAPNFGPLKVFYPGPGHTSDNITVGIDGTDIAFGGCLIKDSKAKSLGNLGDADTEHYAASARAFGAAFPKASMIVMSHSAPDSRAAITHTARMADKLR

Activity change, negative = inhibition, inactive:
CS(=O)(=O)N[C@H]1C[C@H]2C(=O)Nc3ccc(-c4ccc5c(c4)OCO5)cc3C(=O)N2C1 4.29% [at 57.5 µM]
COCc1noc(CCNc2cc(C)nc(-c3ccccc3O)n2)n1 -1.23%
O=C1Nc2ccccc2O[C@H]2C[C@@H]1N(Cc1ccc3ccccc3n1)C2 15.6% [at 57.5 µM]
COCc1cc(=O)n(CC(=O)Nc2cccc(F)c2)c(N2CCOCC2)n1 3.57%
COc1ccc(-c2ccnc(N[C@H]3CO[C@H]4[C@@H]3OC[C@H]4OC(=O)Nc3cccc(OC)c3)n2)cc1 -2.55%
Clc1ccc(-c2cnc3n2C[C@H](CNCc2ccc4c(c2)OCO4)OC3)cc1 17.4% [at 57.5 µM]
Cc1cc(C)n2nc(C(=O)N3CCC(Cc4cccc(C(N)=O)c4)C3)nc2n1 (stereo not given) 0.171%
Cc1ccc2c(c1)N1C(=O)OC[C@@H]1CCN(Cc1cccc(Cl)c1)C2 0.512% [at 57.5 µM]
CCOCCN1C(=O)COC[C@@H]1[C@H](O)c1ccc(NC(=O)Cc2ccccc2)cc1 -0.552% [at 57.5 µM]
CN(Cc1cc2n(n1)CCNC2)Cc1nc2ccsc2c(=O)[nH]1 22.7%
CSCC(=O)N1C[C@@H](NC(=O)NC2CCCCC2)C[C@H]1C(=O)N[C@H](Cc1c[nH]c2ccccc12)C(N)=O 0.14%
CCNC(=O)NC[C@@H]1C=C(C)[C@H](CC(=O)NCc2ccccn2)C[C@H]1C(C)C 20.6% [at 57.5 µM]
Cc1cc(C(=O)N2CC(N(C3CCOCC3)S(C)(=O)=O)C2)nn1C 0.0305%
O=C(Cc1ccccc1)Nc1ccnn1C1CCN(Cc2ccc3cccc(F)c3n2)CC1 1.18%
Cc1ncccc1C(=O)N1CCC(N2CC3CC(C2)[C@H]2CCCC(=O)N2C3)CC1 (stereo not given in full) 0.935%
CN(Cc1ccsc1)CC1(O)CCCN(CCCc2ccccc2)C1=O (stereo not given) 3.38%
COc1ccc(-c2nnc3n2CCN(C(=O)N(C)C)C3)cc1 2.62% [at 57.5 µM]
Cn1ncc(N2CCC(CNC(=O)c3cccc(-c4ncc[nH]4)c3)C2)cc1=O (stereo not given) 5.13%
Cn1c(=O)[nH]cc(CC(=O)N2CCCC(c3cccc(C(=O)O)c3)C2)c1=O (stereo not given) 2.14%
C=CCN(C)C(=O)[C@@H](C)C1CC[C@@]2(C)Cc3sc(NCCCC)nc3[C@@H](C)[C@@H]2[C@H]1O (stereo not given in full) -1.93% [at 57.5 µM]
O=[N+]([O-])c1cccc(-c2noc([C@@H]3C[C@@H](O)CN3Cc3ccccc3)n2)c1 2.26% [at 57.5 µM]
COc1ccc(C(=O)N2CCC(c3nc(C4CCOCC4)no3)C2)cc1OC (stereo not given) -1.16%
COCCN1C[C@H]2CN(C(=O)c3ccccc3OC)CCN2C1=O -0.628% [at 57.5 µM]
c1ccc(-c2cn3c(n2)CO[C@@H](CNCc2cccs2)C3)cc1 -1.46% [at 57.5 µM]
COc1ccc(-c2ccc3ncc(Nc4ccc(CCO)cc4)n3n2)cn1 12.6% [at 57.5 µM]
O=C(NCCc1csc(-c2cnccn2)n1)C1CC2(CCNCC2)CN1 (stereo not given) 40%
O=C(NC1CCCC1)N1CC(c2nnc(-c3ccncc3)o2)C2(CCOCC2)C1 (stereo not given) 1.54%
CN(Cc1cn(-c2ccccc2)nn1)Cc1nccn1Cc1ccccc1 13.8%
COC(=O)[C@H](Cc1ccc(OC)cc1)NC(=O)[C@@H]1CN(C(=O)c2cccc(F)c2)CCN1C(C)=O 1.4%
OCC1(O)CCN(C2CCN(c3ccc4c(c3)OCO4)CC2)CC1 4.58%
O=C(CN1CCOc2ccccc2C1)N[C@H]1CCOC[C@H]1C1CCOCC1 2.19%
COC[C@H]1CCCN1C(=O)C(C)[C@@H]1CC[C@@]2(C)CC[C@H](NC(C)=O)[C@@H](C)[C@@H]2[C@H]1O (stereo not given in full) 3.58% [at 57.5 µM]
O=C1Cc2c(-c3cccc(O)c3)n[nH]c2CN1CC1CC1 5.48% [at 76.7 µM]
CN(C)CCN1CC2(CCCN(C(=O)CN(C)c3ccccc3)C2)CCC1=O (stereo not given) -2.25%
O=C(N[C@H]1CCN2C(=O)[C@@H](Cc3c[nH]c4ccccc34)NC(=O)[C@H]12)c1cnccn1 3.09% [at 57.5 µM]
CC[C@H]1CN(S(=O)(=O)c2ccccc2)CC[C@H]1CC(=O)NCCOC -0.308% [at 57.5 µM]
Cc1ccccc1Nc1cnc2ccc(-c3cccc(CO)c3)nn12 63.5% [at 57.5 µM]
COc1cccc(C(=O)N[C@H]2[C@H](O)[C@H](O)C[C@@H]2c2ccc(N3CCOCC3)nc2)c1 4.01% [at 57.5 µM]
CC(C)C[C@@H]1N[C@H](C(=O)NCc2cccs2)Cc2c[nH]c3cccc1c23 0.396% [at 57.5 µM]
COc1cccc(Nc2ccc3c(n2)C(C)(C(=O)NCCc2cnc[nH]2)CN(C)C3)c1 (stereo not given) -0.198% [at 57.5 µM]
CSCC(=O)N1C[C@@H](NC(=O)Nc2ccc(F)cc2F)C[C@H]1C(=O)N(C)CC(N)=O -1.6%
COCCOc1ccnc(-c2noc([C@@H]3CCCN3Cc3ccc(C(=O)O)cc3)n2)c1 -4.19% [at 57.5 µM]
O=C(NCCc1ccccc1)C1CCN(C(=O)c2ncn3c2COC(c2ccc(F)cc2)C3)CC1 (stereo not given) 2.06%
Cc1cccc(N(CC(=O)N[C@H]2CC[C@H]2NC2CCCC2)S(C)(=O)=O)c1 -0.686%
O=C(C[C@@H]1O[C@H](CNS(=O)(=O)c2ccc(Cl)cc2)[C@@H](O)[C@H]1O)N1CCN(c2ccc(F)cc2)CC1 4.03%
CN(Cc1cccnc1)Cc1nc(C2(O)CCN(Cc3ccc(F)cc3)CC2)cs1 0.792% [at 57.5 µM]
COCCn1ncc(N2CCC(NC(=O)C(C)C)CC2)cc1=O 17.7%
O=C(Nc1ccccc1)Nc1ccc(=O)n2c1[C@@H]1C[C@@H](CN(C(=O)COc3ccccc3)C1)C2 9.88%
COCc1nc(C2CCCN(C(=O)c3nccn3C)C2)no1 (stereo not given) 1.83%
O=c1c2c(CO)c(-c3ccc(F)cc3)nn2ccn1Cc1cc(F)ccc1F -2.68%
Cn1ccc2c(C(=O)N[C@H](c3cccs3)C3CC(O)C3)cccc21 (stereo not given in full) 7.79%
COCc1cc(CNC(=O)c2cn(C3CCC(N)CC3)nn2)[nH]n1 (stereo not given) 4.58%
O=S(=O)(c1ccc(F)cc1)N1CCCC(Cc2noc(-c3cnccn3)n2)C1 (stereo not given) 0.251%
COCC(=O)N[C@H]1CO[C@H]2[C@@H]1OC[C@@H]2Nc1nccc(-c2cccc(C#N)c2)n1 3.1% [at 57.5 µM]
COc1ccc(CCc2nc3nccc(-c4ccc(OC)c(OC)c4)n3n2)cc1OC 3.44%
COc1ccc(CCC(=O)N2CCC3(CC2)CCC(O)(CN(C)C)CC3)cc1 0.818%
COc1ccc(C[C@H](NC(=O)[C@@]2(O)C[C@@H](O)[C@H](O)[C@@H](NC(=O)Nc3ccc(C)cc3)C2)C(N)=O)cc1 0.361%
CCN1CCC2(CCC1=O)CN(Cc1nc3c(cnn3C)c(=O)[nH]1)CCN2C (stereo not given) 62.9%
OC1(CN2CCCCC2)CCN(Cc2ccc(C(F)(F)F)cc2F)C1 (stereo not given) -1.26%
COc1cccc(CC(=O)N[C@@H]2CCC[C@@H](C(=O)NCc3cc(F)cc(F)c3)CC(=O)N(C)C2)c1 0.514%
CC1=C[C@@H](CNC(=O)CC(C)(C)CC(=O)O)[C@H](C(C)C)C[C@H]1Cc1nc2ccccc2n1C 12.7%
Brc1ccc(CN2CCC(c3nc4ccncc4[nH]3)C2)cc1 (stereo not given) 4.37%
CC(C)C1C(=O)N(C)CCN1C(=O)c1cc(COc2cccc(F)c2)[nH]n1 (stereo not given) 2.09%
COCCn1nc2n(c1=O)CCN(S(=O)(=O)c1c(C)nn(C)c1C)CC2 -1.21%
O=C(c1cccc(O)c1)N1CCNc2cnc(Nc3cccc(F)c3)nc2C1 9.32% [at 57.5 µM]
CC(=O)N1CCN(c2cc(-c3noc([C@@H]4CCCN4Cc4ccc(C(F)(F)F)cc4)n3)ccn2)CC1 1.01%
Cc1ccccc1NC(=O)Cn1c(-c2cccc(Cl)c2)nc(C)c(CCO)c1=O 0.478%
C[S+](=O)([O-])Nc1cccc(Nc2cnc3ccc(-c4cccc(CO)c4)nn23)c1 48.2% [at 57.5 µM]
CNC(=O)[C@@H](Cc1ccccc1)N1CCC[C@H]1C(=O)NC1CCOCC1 76.8% [at 57.5 µM]
CC1(C(=O)Nc2ccncc2)CCCc2cnc(Nc3ccccc3)nc21 (stereo not given) 1.44% [at 57.5 µM]
CC1=C[C@@H](CNC(=O)c2cncnc2)[C@H](C(C)C)C[C@H]1CC(=O)N(C)Cc1ccccc1 -0.536% [at 57.5 µM]
O=C(NCc1cnccn1)c1nc(-c2ccccc2)cc2[nH]ccc12 9.2% [at 57.5 µM]
O=C(O)c1ccc(CN2CC[C@@H](c3ccc4ccccc4c3)[C@H](O)C2)cc1 -1.37%
COc1ccccc1-c1[nH]nc2ncc(-c3ccccc3O)nc12 0.175% [at 57.5 µM]
O=C(O)c1cc(-c2ccccc2CO)cc(S(=O)(=O)N2CCCCCC2)c1 2.17%
